Data taken from article PMC4336329 (PLoS ONE, 2015).
In all, about 310,000 compounds went through this assay and about 2,200 (0.71%) showed an effect of 50% or more. The effect is printed as a negative number. This is one part of the list.

target: human ether-à-go-go-related gene (hERG) potassium channel (human, UniProt Q12809); experiment: primary screen, population patch clamp on CHO cells stably expressing hERG
Sequence (Q12809 whole entry, looked up): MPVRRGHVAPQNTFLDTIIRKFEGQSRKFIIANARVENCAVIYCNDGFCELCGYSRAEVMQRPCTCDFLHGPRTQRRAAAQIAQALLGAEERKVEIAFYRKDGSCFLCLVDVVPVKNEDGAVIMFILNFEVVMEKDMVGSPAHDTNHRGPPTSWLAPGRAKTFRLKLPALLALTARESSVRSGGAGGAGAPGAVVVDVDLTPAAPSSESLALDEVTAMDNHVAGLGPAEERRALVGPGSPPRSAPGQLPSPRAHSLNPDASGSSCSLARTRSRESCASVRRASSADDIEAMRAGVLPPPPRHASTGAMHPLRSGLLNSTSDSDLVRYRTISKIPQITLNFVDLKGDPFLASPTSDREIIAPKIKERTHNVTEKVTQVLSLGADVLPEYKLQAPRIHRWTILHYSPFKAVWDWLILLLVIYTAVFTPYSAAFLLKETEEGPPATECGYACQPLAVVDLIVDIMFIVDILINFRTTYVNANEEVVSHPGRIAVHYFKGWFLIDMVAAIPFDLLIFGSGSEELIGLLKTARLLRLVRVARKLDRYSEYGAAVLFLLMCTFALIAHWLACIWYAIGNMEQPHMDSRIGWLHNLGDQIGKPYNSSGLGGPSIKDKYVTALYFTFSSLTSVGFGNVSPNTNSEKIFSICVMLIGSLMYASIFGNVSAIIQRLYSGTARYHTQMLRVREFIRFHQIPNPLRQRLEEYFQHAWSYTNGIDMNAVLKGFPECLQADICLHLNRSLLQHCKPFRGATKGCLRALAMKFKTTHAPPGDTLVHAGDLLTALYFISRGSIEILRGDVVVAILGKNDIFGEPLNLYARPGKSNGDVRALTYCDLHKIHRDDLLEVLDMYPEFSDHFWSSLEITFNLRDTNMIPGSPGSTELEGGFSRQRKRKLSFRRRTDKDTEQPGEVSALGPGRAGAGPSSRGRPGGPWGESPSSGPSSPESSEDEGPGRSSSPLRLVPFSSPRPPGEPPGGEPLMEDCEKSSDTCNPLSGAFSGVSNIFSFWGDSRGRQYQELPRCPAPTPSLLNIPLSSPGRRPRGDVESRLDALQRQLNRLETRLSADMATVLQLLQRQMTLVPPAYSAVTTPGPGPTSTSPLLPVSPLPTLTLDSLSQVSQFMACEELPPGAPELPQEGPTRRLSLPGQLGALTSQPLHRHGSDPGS

First: CC(C)(C)NC(=O)C(Cc1ccccc1)NS(=O)(=O)c1ccc2c(c1)CCC(=O)N2 (centres unmarked)
Second: CC(NC(=O)C(C)(C)C)C(c1cccs1)N1CCN(Cc2ccccc2)CC1 (centres unmarked)
The “hERG current change (%, negative = inhibition) at 1uM” value of the first is lower: -2.91% for the first, 7.15% for the second.

Going from `O=C(CN1CCN(c2ccccc2O)CC1)Nc1ccc([N+](=O)[O-])cc1Br` to `N#C/C(=C\c1ccc(-c2ccc([N+](=O)[O-])cc2Br)o1)C(=O)N1CCN(c2ccccc2)CC1`, the “hERG current change (%, negative = inhibition) at 1uM” value falls from 7.54% to 6.49%.

Going from `COc1ccc(-c2c([C@H]3[C@@H]4C=CCC[C@@]4(C)C(=O)N3Cc3ccccc3)ccc3ccccc23)cc1OC` to `CCOc1ccccc1-n1c(CN2CCN(C(=O)c3ccco3)CC2)nc2ccccc2c1=O`, the “hERG current change (%, negative = inhibition) at 1uM” value rises from 7.92% to 9.93%.

Compared with `CCC(C)[C@H](NC(=O)C1(c2ccccc2)CCN(C(=O)OC(C)(C)C)CC1)C(=O)N[C@@H](C(=O)O)c1ccccc1` (some centres unmarked), `COC(=O)c1c(NC(=O)c2ccc(C)cc2)sc(Cc2ccccc2)c1C` is higher in “hERG current change (%, negative = inhibition) at 1uM” value: 9.59% for the first, 16.4% for the second.

Compared with `Cc1cc(C(=O)NCc2ccco2)cs1`, `O=C(O)C1CC(c2ccccc2)=NO1` (centres unmarked) is lower in “hERG current change (%, negative = inhibition) at 1uM” value: 13.5% for the first, 7.87% for the second.

Compared with `Cc1cc(C)cc(NC(=S)N(Cc2ccc(Cl)cc2)Cc2ccc(C(=O)O)cc2)c1`, `CCOC(=O)c1ccc(N2C=C(C(=O)OC)C(c3cccc(O)c3)C(C(=O)OC)=C2)cc1` is higher in “hERG current change (%, negative = inhibition) at 1uM” value: 6.22% for the first, 9.67% for the second.

Compared with `CCOC(=O)C1CCCN(C(=O)N2CCOCC2)C1` (centres unmarked), `CCOC(=O)C1CCN(C=C2C(=O)N(C)C(=S)N(C)C2=O)CC1` is higher in “hERG current change (%, negative = inhibition) at 1uM” value: 3.81% for the first, 6.1% for the second.

Compared with `CCN(CC(=O)NC(C)(C)C)C(=O)c1ccc(Br)cc1`, `CCc1nc2ccccc2c(C(=O)OCC(=O)C(C)(C)C)c1C` is higher in “hERG current change (%, negative = inhibition) at 1uM” value: 4.19% for the first, 9.77% for the second.

First: CC(=O)n1cc([C@H]2C=C(C(=O)NCc3ccccc3)O[C@@H](OCCCCO)C2)c2ccccc21
Second: COC(=O)Cn1c(O)c(N=NC(=O)CNC(=O)c2ccncc2)c2ccccc21
The “hERG current change (%, negative = inhibition) at 1uM” value of the first is lower: -3.26% for the first, 13% for the second.

Compared with `COc1ncnc(OC)c1S(=O)(=O)NCc1ccccc1`, `Fc1ccccc1-c1csc(=Nc2cccnc2)n1CCCn1ccnc1` is lower in “hERG current change (%, negative = inhibition) at 1uM” value: 14.3% for the first, -35.1% for the second.

Compared with `CC(C)CC(=O)N1CC(C)N(C(=O)CC(C)C)CC1C` (centres unmarked), `CCCCn1c2c(c(=O)n(C)c1=O)C(CC(=O)OCC(=O)Nc1cccc(C(F)(F)F)c1)C(=O)N2` (centres unmarked) is higher in “hERG current change (%, negative = inhibition) at 1uM” value: -2.69% for the first, 2.43% for the second.

In the case of `O=C(Nc1ccc(Cl)c([N+](=O)[O-])c1)c1ccncc1`, the “hERG current change (%, negative = inhibition) at 1uM” value is reported as 1.24%.
